# Measurements: patent publication US20260015434A1, “ANTIBODY MATERIALS AND METHODS TARGETING MICROBIAL POLYSACCHARIDES” (priority 2022, published 2026)
# B1: 120 × 266: 1467120 HC (SEQ ID NO: 45) with 5575266 LC (SEQ ID NO: 24) (antibody, V domains shown)
# VH: QVQLVESGGGLVQPGGSLRLSCAASGFTFSSYWMSWVRQAPGKGLEWVANIKQDGSEKYYVDSVKGRFTISRDNAKNSLYLQMNSLRAEDTAVYYCARDPEGGLPDYWGQGTLVTVSS
# VL: [about 100 residues not listed]DTFGQGTRLEIK
# modifications: Based on an antibody sequence.; Based on antibody sequence.
# B2: 729 × 266: 15729 HC (SEQ ID NO: 44) with 5575266 LC (SEQ ID NO: 24) (antibody, V domains shown)
# VH: B1 VH with Q1E, E101D, G103R, L104I, P105F
# VL: [about 100 residues not listed]DTFGQGTRLEIK
# modifications: Based on an antibody sequence.; Based on antibody sequence.
# B3: 285 × 266: 4488285 HC (SEQ ID NO: 46) with 5575266 LC (SEQ ID NO: 24) (antibody, V domains shown)
# VH: B1 VH with Q1E, E101Y, G102M, P105I
# VL: [about 100 residues not listed]DTFGQGTRLEIK
# modifications: Based on an antibody sequence.; Based on antibody sequence.
# Tested on: PNAG conjugates on the array (dPNAG, PNAG and intermediate levels of deacetylation)
# Assay: Neoglycoprotein (glycan) microarray binding, 816-component array
# Settings: ability to bind both dPNAG and PNAG and intermediate levels of deacetylation
row,Molecule,PNAG Binding on Array
1,B1,No
2,B2,No
3,B3,No

# Where a chain is given by its changes, count along the chain named.
